Screen size: about 420,000 compounds; about 64,000 (15%) were called active. Inconclusive results, whose numbers are uncertain, are shown with a selection of clear calls. Calls come from the whole dose curve; as a rule, active = well fitted inhibition curve with a large enough effect; inconclusive = small, poorly fitted or top-dose-only effect; inactive = flat fitted curve, though single readings scatter. Potencies of inconclusive entries are left out as doubtful fits.
Test: qHTS for Inhibitors of human tyrosyl-DNA phosphodiesterase 1 (TDP1): qHTS in cells in absence of CPT; note: nearly all actives have a fitted effect of over 55% in size
Details: DT40 Tdp1-/- hTDP1 cells, no CPT, ATP luminescence, 48 h; activity change, negative = growth inhibition: at 46.2 µM (top of the series) unless noted
Procedure, shortened: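 Cells were dispensed at 400 per well, compounds added by pin tool, plates incubated ≥48 hr at 37 °C, then CellTiter-Glo added for 30 min at room temperature before luminescence reading. Line: DT40 Tdp1-/- complemented with hTDP1; camptothecin omitted.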
% is set by controls: 0 for no effect and ±100 for the full control effect; potency is the fitted concentration of half-maximal effect; tags give direction and shape of the fitted curve.

Compound | Potency | activity change, negative = growth inhibition
Cc1nn(-c2ccccc2)c2c1N(CC(=O)N1CCN(c3ccccc3F)CC1)C(=O)CS2 | inconclusive [inhibitor, single point] | –
Cc1ccc(CNC(=O)c2ccc(CS(=O)(=O)Cc3ccc(C)cc3)o2)cc1 | inconclusive [inhibitor, partial curve] | –
CCOc1ccccc1NC(=O)Cn1c(-c2ccc(Cl)cc2)noc1=O | – | inactive: -11.4%
COc1ccccc1Nc1ncnc2scc(-c3ccc(F)cc3)c12 | inconclusive [inhibitor, full curve, poor fit] | –
O=S(=O)(/N=C(/Nc1ccc(F)c(F)c1F)c1ccccc1)c1ccccc1 | – | inactive: 1.25%
COc1ccc(S(=O)(=O)N(C)C[C@@H]2OCc3cn(nn3)CCCC(=O)N([C@@H](C)CO)C[C@H]2C)cc1 | – | inactive: 1.5%
C/C(=C\c1ccccc1)CN1CCC(C(=O)N2CCC(C)CC2)CC1 | inconclusive [inhibitor, single point] | –
O=C(CC12CC3CC(CC(C3)C1)C2)NCc1ccccc1 | inconclusive [inhibitor, single point] | –
CCOc1ccc(N2C(=O)Nc3ccccc3C2(O)C(=O)NCc2ccco2)cc1 (stereo not given) | – | inconclusive: -34.8% [inhibitor]
O=C(Nc1nc(-c2ccccc2)cs1)c1cccnc1 | inconclusive [inhibitor, partial curve] | –
CCN1C(=O)[C@H]2[C@@H](c3ccc(C)cc3)N3C(=O)N(c4ccc(C)cc4)C(=O)[C@@]3(Cc3ccc(Cl)cc3)[C@H]2C1=O | active: 20.6 µM | –
Fc1ccc(NC(=S)Nc2cccc3ccccc23)cc1 | inconclusive [inhibitor, single point] | –
CC(=O)OCC1(C)CN(c2ccccc2)N(C(=O)c2ccc(F)cc2)C1=O (stereo not given) | inconclusive [inhibitor, single point] | –
CCOCCCNC(=O)/C(C#N)=C/c1ccc(Cl)c([N+](=O)[O-])c1 | active: 7.31 µM | –
CN(C)S(=O)(=O)Oc1ccsc1C(=O)Nc1ccc(Br)cc1 | inconclusive [inhibitor, single point] | –
COc1cc(OC)cc(-c2cc3ncccc3cn2)c1 | inconclusive [inhibitor, single point] | –
COc1ccc(NC(=O)C2CCCN(S(=O)(=O)c3cccc4nonc34)C2)cc1OC (stereo not given) | inconclusive [inhibitor, single point] | –
CCCCCCNC(=O)CC(NS(=O)(=O)c1ccc(OC)cc1)C(C)C (stereo not given) | – | inconclusive: -33.7% [inhibitor]
COc1cc(/C=C2\CCc3ccccc3C2=O)cc(OC)c1OC | active: 16.4 µM | –
O=C(Nc1nnc([C@H]2C[C@H](O)[C@@H](CO)O2)s1)Nc1ccccc1F | – | inactive: -1.3%
COc1ccc(CNC(=O)c2cccn2-c2nnc(N3CCCC3)s2)c(OC)c1 | active: 16.4 µM | –
Cc1cc2cc(CN(CC3CCCO3)C(=S)Nc3ccccc3)c(=O)[nH]c2cc1C (stereo not given) | active: 5.8 µM | –
Cc1ccc(S(=O)(=O)NCC(=O)OCC(=O)c2c(N)n(C)c(=O)n(C)c2=O)cc1 | – | inactive: -17.2%

Compound | Potency | activity change, negative = growth inhibition
COc1cc(OC)cc(-c2c(Sc3ccccc3)c3cc(-c4ccc5c(c4)OCCO5)ccc3n2C)c1 | – | inactive: -27.9%
COc1ccc(OCC(=O)NNC(=S)NC(=O)C2CC2)cc1 | inconclusive [inhibitor, single point] | –
CC(=O)C1=C(O)C(=O)N(c2ccc(Br)cn2)C1c1ccccc1[N+](=O)[O-] (stereo not given) | – | inactive: -28.3%
O=C1CCC(C(=O)Nc2ccc(OC(F)F)cc2)N1 (stereo not given) | – | inactive: -6.43%
COc1ccc(Cl)cc1NC(=O)CN(C)C(C)C(=O)NC(=O)NC1CCCCC1 (stereo not given) | active: 18.4 µM | –
CCCCN(CCCNC(=O)c1cc(Nc2ccccc2OC)nc2ccccc12)c1ccccc1 | inconclusive [inhibitor, single point] | –
COc1ccc(NC(=O)CN(c2ccc(OC)c(Cl)c2)S(=O)(=O)c2ccccc2)cc1 | inconclusive [inhibitor, single point] | –
CCC/C(C#Cc1ccc(N(C)C)cc1)=C1/c2ccccc2C(=O)N1c1ccccc1 | active: 16.4 µM | –
Cc1cccc(N2CC(C(=O)Nc3ccccc3N3CCCC3)CC2=O)c1C (stereo not given) | – | inactive: -8.58%
COC(=O)c1ccc(OCC(O)CN2CCN(CC(O)COc3ccc(C(=O)OC)cc3)CC2)cc1 (stereo not given) | inconclusive [inhibitor, single point] | –
O=C(NC(NC(=S)Nc1cccc(Cl)c1)C(Cl)(Cl)Cl)OCc1ccccc1 (stereo not given) | active: 18.4 µM | –
Cn1c(Sc2ccc([N+](=O)[O-])cc2C(F)(F)F)nnc1-c1ccccc1 | inconclusive [inhibitor, single point] | –
Cc1ccc(OCCCn2c(-c3ccc(Cl)cc3)nc3ccccc3c2=O)c(C)c1 | – | inactive: -0.0429%
CC(C)c1ccc(N2C(=O)C(Cl)=C(N3CCOCC3)C2=O)cc1 | inconclusive [inhibitor, partial curve] | –
Nc1c(C(=O)Nc2ccccc2)sc2nc3c(cc12)CN(Cc1ccccc1)CC3 | active: 23.1 µM | –
O=C(N=NC(=O)c1ccc2c(O)n(C3CCCCC3)c(O)c2c1)c1cccnc1 | inconclusive [inhibitor, single point] | –
Cc1cccc(-n2c(=O)c3c4c(sc3n3c(C)nnc23)CCCC4)c1 | – | inactive: -18.7%
CCCn1c(=O)c2ccccc2n2c(SCc3c(C(=O)OCC)oc4ccccc34)nnc12 | inconclusive [inhibitor, single point] | –
Clc1ccc(-n2c(Cc3ccccc3)nnc2SCc2nc(-c3cccs3)no2)cc1 | inconclusive [inhibitor, single point] | –
Nc1ccc(Nc2ccccc2)c(Cl)c1 | inconclusive [inhibitor, single point] | –
COC(=O)C(F)(Sc1c(C)n(C)n(-c2ccccc2)c1=O)C(F)(F)F (stereo not given) | – | inactive: -11.9%
COc1ccc(Cc2c(-c3ccccc3)nc3c(C)cc(Br)cn23)c(C)c1 | inconclusive [inhibitor, single point] | –

Reference: PubChem BioAssay AID686978 (National Center for Advancing Translational Sciences (NCATS), 2013)
